# Laboratory results: the supplement of paper PMC12217912
# Some of the results follow. The full chains were built here from the parent and the listed change. Inactive controls read about 0.05.
# B1: TEV protease; numbered along this chain (parent)
# chain: MGESLFKGPRDYNPISSSICHLTNESDGHTTSLYGIGFGPFIITNKHLFRRNNGTLVVQSLHGVFKVKDTTTLQQHLVDGRDMIIIRMPKDFPPFPQKLKFREPQREERICLVTTNFQTKSMSSMVSDTSCTFPSGDGIFWKHWIQTKDGQCGSPLVSTRDGFIVGIHSASNFTNTNNYFTSVPKNFMELLTNQEAQQWVSGWRLNADSVLWGGHKVFMVKPEEPFQPVKEATQL
# Variants of: B1
# Assay: raw area under fraction-flipped curve 0-4 h after induction (AUC4h, not background-subtracted), DNA-recorder readout of cleavage of the substrate (dimensionless); higher = more cleavage of the substrate by the protease variant
# Conditions: temperature: 34 °C; time window: 0-4 h after rhamnose induction
# 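Also: Bxb1 expression induced with 0.2% (w/v) L-rhamnose at OD600 near 0.5, cultures sampled hourly, flipped fraction per protease–substrate barcode pair counted by paired-end Illumina sequencing.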
Variant,area with substrate ENLYFHS,area with substrate ENLYFIS,area with substrate ENLYFTS,area with substrate ENLYFLS,area with substrate ENLYFMS,area with substrate ENLYFNS,area with substrate ENLYFPS,area with substrate ENLYFDS,area with substrate ENLYFES,area with substrate ENLYFFS,area with substrate ENLYFGS,area with substrate ENLYFSS,area with substrate ENLYFWS,area with substrate ENLYFKS,area with substrate ENLYFRS,area with substrate ENLYFVS,area with substrate ENLYFYS,area with substrate ENLYFCS
A170T,0.0417,0.0564,0.0588,,,,,,,,,,,,,,,
L235E,,0.0713,,0.059,0.0709,0.0594,0.0675,,,,,,,,,,,
S158Y,0.0496,0.0441,0.0639,,0.0611,0.06,0.0485,0.0561,0.0514,0.0462,0.0495,0.0497,0.0536,,,,,
Q146P,,0.0657,,0.0623,0.0792,0.071,0.0529,0.0553,0.0628,0.0732,0.0572,0.0441,0.104,0.0656,0.0695,0.063,,
T159I,,0.0518,0.0805,,0.0707,0.083,0.0717,0.0652,0.0449,0.0908,,,0.0634,,,,0.0468,
P9C,,0.0554,,,0.0497,0.0581,0.0821,,0.0614,0.0697,,0.0438,0.0509,,,,,
F101V,,0.0637,,,,,0.0499,,,0.0403,,0.0462,,,0.0529,,,
S169I,0.0615,0.0527,0.0575,0.0485,0.0658,0.0596,0.041,0.0714,0.0595,0.0641,0.055,0.0547,0.0604,0.015,0.0637,,0.0553,
E107L,,,0.0575,,,,,,0.101,,,0.0592,,,,,,
W212G,,0.0584,,0.0492,,,0.064,0.0544,0.059,0.0673,,,,0.0527,0.0591,0.0607,,0.0458
S127L,,0.0732,0.0674,0.0608,0.0956,,0.0571,0.0563,0.0503,0.0601,0.0519,,0.046,,,0.0624,,
R102M,0.0489,0.0496,0.0562,,0.0706,0.0513,0.045,0.0474,0.0513,0.0469,,0.0589,0.0538,0.0584,0.0422,,0.0677,
Q198N,0.0585,,0.0734,,0.0689,,,0.0807,0.0462,,0.0563,0.0691,,0.0633,0.0747,,0.0515,0.0638
Q198T,,0.0818,0.0621,0.0614,0.075,,0.0587,0.0907,0.0626,0.0789,,,0.0423,0.0625,0.0508,,,0.0586
A207K,0.067,0.0412,,0.0842,,0.065,0.0613,,,0.0769,,0.0632,0.0729,,0.0513,,0.0518,0.0792
E231N,0.0674,0.0487,0.0592,0.0547,0.0616,,0.0655,0.0169,0.0562,0.0648,0.063,0.0671,0.046,,0.0525,0.055,0.0546,0.0722
E231V,0.0613,0.0419,,0.0551,,0.081,0.0661,0.0561,0.0622,,,0.06,0.0611,,0.0553,0.0618,0.0608,0.0739
V229K,0.0538,0.0488,0.0689,,0.0667,0.0467,0.0618,,0.0472,0.0802,,,0.0953,,,0.055,,
V229Q,0.0603,0.0585,0.0584,0.0482,0.0865,0.0715,0.0618,0.0643,0.0697,0.0706,,0.043,,0.0698,,0.0526,0.0648,
S209D,,0.0615,0.0464,,0.0608,,0.0602,,,0.0733,0.0597,,,,,0.0286,,
Q75E,0.0724,0.0516,0.0498,0.0487,0.0623,0.0561,0.0672,,0.063,0.0481,,0.0601,0.046,0.0588,,0.053,0.0444,
Q75A,,0.0603,,0.0698,0.0691,0.0705,,,0.084,0.0511,,,0.0688,0.0901,,,,
A196F,,0.0392,,,0.0691,0.0783,,,0.0607,0.0666,0.0482,,0.0715,,0.0819,0.0913,,0.0554
A196D,0.062,0.0558,0.0569,,0.07,0.0611,0.0543,,0.0566,0.0671,,,0.0505,0.0669,0.0506,0.0446,0.0565,0.0243
A196W,,0.0585,0.034,0.0687,0.0727,,,0.0592,0.0595,,,,,0.065,0.0378,,0.065,0.0631
P222A,0.0828,0.0656,0.0532,0.0534,,0.0672,0.071,,0.0618,0.065,,0.0679,,0.0587,,,,
F218N,,,,,0.066,0.0578,0.0537,,,,0.0628,,0.0318,,0.0675,,0.069,0.0506
T233E,,0.0625,0.056,0.0605,0.0612,0.0421,0.0631,,,0.069,,0.0529,,0.0626,,0.0595,,
G136C,0.0702,0.0581,0.0567,,0.0657,0.0629,0.0701,0.0619,0.071,0.0657,0.0533,0.0509,0.0616,,0.0518,0.0605,0.0546,
K230S,0.0263,0.0662,0.0977,0.0685,0.0815,,0.0559,,0.0634,0.0679,,0.0653,0.0595,,0.0515,0.0545,0.062,0.0727
